Test results: paper PMC7511960
These are yes or no findings as the source states them, for the method shown. Binding seen in cells or lysates may run through a third protein. Some results given as binding are weak or reduced against the parent protein; the word gives no strength. Where a sequence is shown, tags or fusion partners need not be part of it.

The chains behind the UniProt entries cited, without tags or fusion partners.
UniProt O95863: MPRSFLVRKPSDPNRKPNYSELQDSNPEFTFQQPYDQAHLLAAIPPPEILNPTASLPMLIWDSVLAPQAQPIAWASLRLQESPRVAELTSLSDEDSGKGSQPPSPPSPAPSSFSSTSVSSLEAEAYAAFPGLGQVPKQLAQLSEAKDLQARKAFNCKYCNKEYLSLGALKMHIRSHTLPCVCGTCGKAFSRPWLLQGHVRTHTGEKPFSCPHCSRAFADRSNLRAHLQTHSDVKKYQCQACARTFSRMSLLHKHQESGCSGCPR

What was measured:
Assay in all cases: co-IP; HEK293T co-transfected for 24 h; GFP or GFP-tagged USP29 variants immunoprecipitated with anti-GFP antibody and protein G-agarose, 4 h at 4 °C, Triton X-100 lysis buffer (50 mM Tris-HCl pH 7.4, 150 mM NaCl, 1 mM EDTA, 1% Triton X-100); blot for Snail1
[1] = target: T1, GFP-USP29(USP), catalytic USP domain (amino acids 284-922) (UniProt Q9HBJ7)
T1 sequence: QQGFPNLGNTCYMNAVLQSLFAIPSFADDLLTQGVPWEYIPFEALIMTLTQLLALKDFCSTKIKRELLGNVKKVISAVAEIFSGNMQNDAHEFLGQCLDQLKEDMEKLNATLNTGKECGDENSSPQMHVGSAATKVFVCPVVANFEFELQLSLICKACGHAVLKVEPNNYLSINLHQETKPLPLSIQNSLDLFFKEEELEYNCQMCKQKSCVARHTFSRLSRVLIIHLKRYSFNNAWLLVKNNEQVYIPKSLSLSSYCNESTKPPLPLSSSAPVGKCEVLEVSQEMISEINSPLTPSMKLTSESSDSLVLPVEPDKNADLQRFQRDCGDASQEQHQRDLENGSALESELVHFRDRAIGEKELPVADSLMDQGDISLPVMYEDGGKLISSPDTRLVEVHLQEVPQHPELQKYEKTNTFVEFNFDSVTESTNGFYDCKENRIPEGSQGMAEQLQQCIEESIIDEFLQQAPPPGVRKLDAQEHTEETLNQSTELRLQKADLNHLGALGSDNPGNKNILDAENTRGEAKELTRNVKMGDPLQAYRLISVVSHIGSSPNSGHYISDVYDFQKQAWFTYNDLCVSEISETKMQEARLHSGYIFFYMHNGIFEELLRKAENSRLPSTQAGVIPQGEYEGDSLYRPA

[2] = target: T2, GFP-USP29 N-terminus (amino acids 1-283) (UniProt Q9HBJ7)
T2 sequence: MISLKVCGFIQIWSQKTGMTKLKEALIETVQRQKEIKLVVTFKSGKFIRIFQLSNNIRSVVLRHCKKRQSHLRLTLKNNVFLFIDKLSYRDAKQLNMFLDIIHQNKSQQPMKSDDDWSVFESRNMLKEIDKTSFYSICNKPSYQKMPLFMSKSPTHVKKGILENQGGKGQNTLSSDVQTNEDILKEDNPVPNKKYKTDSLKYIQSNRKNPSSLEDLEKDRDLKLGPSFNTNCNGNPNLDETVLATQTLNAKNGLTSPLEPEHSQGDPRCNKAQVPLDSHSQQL

[3] = target: T3, GFP-USP29 (wild type, full length) (UniProt Q9HBJ7)
T3 sequence: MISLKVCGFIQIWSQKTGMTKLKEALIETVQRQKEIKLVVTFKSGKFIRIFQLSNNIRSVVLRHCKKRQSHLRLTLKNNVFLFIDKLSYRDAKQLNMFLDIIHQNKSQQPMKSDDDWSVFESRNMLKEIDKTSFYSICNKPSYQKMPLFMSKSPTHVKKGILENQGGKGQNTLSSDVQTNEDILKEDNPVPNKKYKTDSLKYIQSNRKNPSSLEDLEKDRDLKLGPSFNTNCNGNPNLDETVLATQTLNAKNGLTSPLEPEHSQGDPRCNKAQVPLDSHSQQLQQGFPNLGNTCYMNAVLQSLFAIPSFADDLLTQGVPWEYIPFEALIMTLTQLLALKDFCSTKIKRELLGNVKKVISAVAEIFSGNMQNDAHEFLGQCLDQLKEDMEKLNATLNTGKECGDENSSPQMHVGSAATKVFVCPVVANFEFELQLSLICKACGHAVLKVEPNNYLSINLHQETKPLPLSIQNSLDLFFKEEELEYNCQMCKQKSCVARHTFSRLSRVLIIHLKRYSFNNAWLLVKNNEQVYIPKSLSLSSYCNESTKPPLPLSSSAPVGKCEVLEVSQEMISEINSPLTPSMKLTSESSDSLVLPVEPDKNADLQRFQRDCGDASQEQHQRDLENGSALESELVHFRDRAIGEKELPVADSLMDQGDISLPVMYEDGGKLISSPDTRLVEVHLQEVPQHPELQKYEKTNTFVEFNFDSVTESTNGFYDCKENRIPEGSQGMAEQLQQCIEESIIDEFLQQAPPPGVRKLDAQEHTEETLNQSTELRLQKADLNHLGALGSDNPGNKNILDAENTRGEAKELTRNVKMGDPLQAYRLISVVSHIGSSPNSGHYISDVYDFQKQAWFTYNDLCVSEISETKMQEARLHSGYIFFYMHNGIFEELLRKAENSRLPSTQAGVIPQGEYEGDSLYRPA

binding [1]: binds weakly | binding [2]: binds weakly | binding [3]: binds
Substance: Flag-tagged Snail1 (from UniProt O95863 1-264)
